Test results as given in the supplement of paper PMC10126150.
Sequences with one replicate were seen in a single cluster, so their values are uncertain.

Each sequence was assayed on ATP (assay: switch fluorescence ratio, 500 uM ATP over buffer (Cy3 cluster intensity, sum of 5 cycles each) (fold (ratio)); higher = stronger signal-on switching upon ATP binding; sequences stand for … in TCGTCGGCAGCGTCAGATGTGTATAAGAGACAGTTTTTTTTTTTTTTTTTTTTTTTTT…TC). Conditions: aptamer strand: ATP DNA aptamer (quencher-CACCTGGGGGAGTATTGCGGAGGAAGG + anchor), 100 nM annealed; ATP concentration: 500 uM; one replicate.
How it was run: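 Between each of five buffer/ATP cycles, the flow-cell was stripped with NaOH and re-annealed. Each cycle imaged Cy3-labelled switching-strand clusters, annealed to 100 nM quencher-labelled ATP aptamer on a modified Illumina MiSeq flow-cell, first in selection buffer and then after 15 min with 500 uM ATP at 22 °C. The fluorescence ratio is summed target-cycle over summed buffer-cycle Cy3 intensity per cluster, averaged per switch-domain sequence, with clusters outside 100-1000 RFU excluded.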
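Also: ATP exposure 15 min at 22 °C before imaging.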

Sequence | switch fluorescence ratio
CGAGACTGCA | 1.05
TATACAAAAA | 1.02
AGCTACCGGC | 1.05
CATTTGCTTA | 1.04
GGGACCGGCG | 1.04
CCAACTGCTC | 1.37
CTGGTTG | 0.989
ATCATCTCGT | 1.02
GACTGACAGG | 1.04
CCAGTGGTGG | 0.959
TACGTCGAAG | 1.02
AGGCTCGGCA | 0.978
TGCCAGGTAA | 1.1
AGATTGACCT | 1.28
GAGCTACACG | 1.05
TAATCTATCA | 1.01
GAAGGCGTTC | 1.01
TCCCAGTTAC | 1.83
GTAATCGCAG | 0.987
GAGTATAACC | 1.02
CCGGGTTTA | 0.996
CTGATTCTAA | 0.968
GGCCTTTGCA | 1.03
TGCGCAAACC | 1.06
TGTAGGCCTC | 0.954
GATCGGCTCA | 0.999

Sequence | switch fluorescence ratio
TACACTTCGT | 1.05
CTGTTTTCGC | 0.974
CCTTTCTGAC | 1.3
GTGTGAGTCG | 1.09
CCGATAACAT | 1.18
GATTAAAAAA | 1
AGGATTTGAT | 0.995
GGTCACAGTT | 0.956
CATCGTCCAC | 1.07
CTCTATCGGT | 1
AACGCAACAT | 1.93
TGTGGAAGGC | 0.952
AACTGTAGGT | 1.02
CTAATTGCTT | 0.964
TCTAATAGAT | 0.991
GCTAGCTGAG | 1.02
TGAACGCAGA | 1.22
TAGGCAATG | 1.77
CAAGTCAGCA | 1.05
GTGACAATCG | 1.04
ACAGTTGCGT | 1.04
CCCTGAGCTG | 1.24
GCCGGCTAGT | 1.02
AGGGAGAGTG | 0.96
GTTCATAGTA | 1.04
ATGAGCGCCT | 1.04

Sequence | switch fluorescence ratio
AGCATTAGGT | 1.01
TCTAGGCTAA | 1
TAGAGAGCGT | 0.952
CATGTAGCTA | 1.04
GTGGGAGCAC | 1.02
GGTACAAGGT | 0.988
TTCAGGATGC | 1.01
TGGTTCTATG | 0.988
AAGTTATATC | 1.02
TGGGCCATAT | 0.987
ATTTTTTTC | 1.22
GTCCGGTGGG | 0.994
TCTGGAGAA | 1.03
CTAGCTTTAA | 1.04
CAAAGGAGTG | 1.03
GGTCAAGAAG | 0.955
AGTTGAGGTG | 1.1
TACTTTAAGG | 0.999
GCCCCACGTG | 3.05
GAAGTCGGGT | 0.958
TACTGCGGTA | 0.996
TATCGCACTC | 1.43
CTCAATCCTT | 1.76
TTTCTGAGA | 0.983
CAGTCTCGGA | 0.955
GGTGGTGTGG | 1.03

Sequence | switch fluorescence ratio
CGATAATCCC | 1.2
GCTTAGTAGT | 0.971
TTATAGAATA | 0.973
CCGGGAAAAT | 1.02
TCTTGCTAT | 1.02
TCTGTTGGA | 0.991
TGGGGCTGTA | 1.1
CTTGGTAAAC | 1.08
ATTAACTCT | 1.01
GTTCCTTATA | 0.972
TGGACATTTA | 1.03
CTCTGAGTA | 1.04
GTTTTGAACT | 1.05
GATACCTGCA | 1.12
CTTGGGCCCG | 1.02
GGGGTCCCGG | 0.996
CCGACCTCCA | 3.61
ACATGCTGC | 0.975
TCTTAAGGGT | 0.973
GATGCAAAAA | 0.939
GCTTTCTGTT | 0.963
CTCTGCCCAT | 1.37
TTTGTTATTC | 0.997
GAACGGGTAA | 0.992
GGAATTAGCC | 0.991
GACGCCAACC | 2.05

Sequence | switch fluorescence ratio
GTCGGTACGT | 0.992
AGGCGACCAA | 1.06
AGGTTCGGGA | 0.989
TCACTGGTGG | 1.01
TCACGGTGT | 1.05
ATTACAGTG | 1
CACGGCTACT | 1.39
GCAACATTCA | 1.07
GGTGCCAT | 1.02
CTATTACGAG | 1.01
CAGACGGGTG | 1.02
TGATTTGTAG | 1.01
AGCTCTACAC | 1.06
CTATTACAG | 1.02
TGACCTCCAT | 1.09
TGAATCGGTT | 0.98
CGACTACGT | 0.973
CGGTGTATCT | 0.979
GCAATGGGT | 1.11
GTTCATGCTT | 1.01
CGAACTAAGG | 1.04
TTGATGAGAA | 0.99
TCAGGAACTT | 1.05
GAAAATGGTA | 0.979
TACGCGCTAC | 3.12
TTGGCTCCGG | 1.04

Sequence | switch fluorescence ratio
AACAAATATT | 0.957
GACATTTGAG | 0.984
GCCCCCTTAG | 1.05
TACTTGGGGC | 0.934
AATAATTCGT | 1.03
ATCGTTTTAG | 0.996
TTTTGGTACG | 0.976
TGCCTGCCGC | 1.19
CATGTAGAAG | 1.02
ATGTATGTAC | 1.11
TTATGGGCAT | 1.02
GTCTACACTG | 1.06
GAGCCGGGTC | 0.972
CGTGCATAAA | 1.01
GTCAGGCGTT | 1.01
AACAAAATTG | 1.07
TTTCTACGGT | 1.01
TAACTTGGTC | 1.02
TATGGGACAA | 1.06
GAAGCGAGGG | 1.05
GGAATTAGGC | 0.96
GCAGTGCCCC | 1.23
GCAGCCAACG | 1.08
GAGTTCTCTG | 1.06
CGGCCCACAA | 1.3
TGTTCTCCTT | 1.01

Sequence | switch fluorescence ratio
GACACACCTT | 1.32
CGGCTGGGCA | 1.03
TATTAGAGAG | 1.01
TGCGGCATG | 1.04
AACTGACAAG | 0.963
CGGCGGTTT | 1
ACTGGGCAAG | 1.05
CCCGGACTGC | 1.83
CTATACTAGA | 0.964
GTGCTAGAGC | 1.02
GCTCAAAGGT | 0.99
AGTCGTTCGG | 1
GAAGTTGAGG | 1.05
GGTGATGGCC | 0.979
GCACTAGGGT | 1.02
ATACACGAGG | 1.05
GGATCTCCTG | 0.987
AGTGAGGACA | 1.05
TCGCCGACAG | 1.06
CGTAATCGGT | 1.04
TACTCGACAT | 1.16
CATGCTTCGC | 1
CGCCGAGCGC | 0.908
CGCGCCGCGT | 1.01
GTTGTTGCG | 1.09
CTCGAGTAAC | 1.08

Sequence | switch fluorescence ratio
TAAGAGACAT | 1.03
TGGACTTCAT | 1.02
TCTTCATTAT | 0.972
TAAGATTGCT | 0.955
CGAGTGCGAA | 1.01
GAATCATATA | 1
GCAGCGCCGC | 1.04
CTGAATGCA | 1.15
CAACAGAGAT | 1.02
ACGCGGAATG | 0.962
AGTTGAGACT | 1.02
GTAAAATGGA | 0.969
ATGACGCGGC | 1.36
AAGGCGTTGT | 0.988
TGTGAGCGTC | 0.974
AAAGGGCT | 0.976
GGCAGCACCG | 0.968
ATACTTAAGA | 1
GAAATCAGAG | 0.974
